Experimental data taken from PMC4336329 (PLoS ONE, 2015).
Screen size: about 310,000 compounds; about 2,200 (0.71%) showed an effect of 50% or more. Effects have a minus sign here. The list shows a part of the results.

target: human ether-à-go-go-related gene (hERG) potassium channel (human, UniProt Q12809); experiment: primary screen, population patch clamp on CHO cells stably expressing hERG
Sequence (Q12809 whole entry, looked up): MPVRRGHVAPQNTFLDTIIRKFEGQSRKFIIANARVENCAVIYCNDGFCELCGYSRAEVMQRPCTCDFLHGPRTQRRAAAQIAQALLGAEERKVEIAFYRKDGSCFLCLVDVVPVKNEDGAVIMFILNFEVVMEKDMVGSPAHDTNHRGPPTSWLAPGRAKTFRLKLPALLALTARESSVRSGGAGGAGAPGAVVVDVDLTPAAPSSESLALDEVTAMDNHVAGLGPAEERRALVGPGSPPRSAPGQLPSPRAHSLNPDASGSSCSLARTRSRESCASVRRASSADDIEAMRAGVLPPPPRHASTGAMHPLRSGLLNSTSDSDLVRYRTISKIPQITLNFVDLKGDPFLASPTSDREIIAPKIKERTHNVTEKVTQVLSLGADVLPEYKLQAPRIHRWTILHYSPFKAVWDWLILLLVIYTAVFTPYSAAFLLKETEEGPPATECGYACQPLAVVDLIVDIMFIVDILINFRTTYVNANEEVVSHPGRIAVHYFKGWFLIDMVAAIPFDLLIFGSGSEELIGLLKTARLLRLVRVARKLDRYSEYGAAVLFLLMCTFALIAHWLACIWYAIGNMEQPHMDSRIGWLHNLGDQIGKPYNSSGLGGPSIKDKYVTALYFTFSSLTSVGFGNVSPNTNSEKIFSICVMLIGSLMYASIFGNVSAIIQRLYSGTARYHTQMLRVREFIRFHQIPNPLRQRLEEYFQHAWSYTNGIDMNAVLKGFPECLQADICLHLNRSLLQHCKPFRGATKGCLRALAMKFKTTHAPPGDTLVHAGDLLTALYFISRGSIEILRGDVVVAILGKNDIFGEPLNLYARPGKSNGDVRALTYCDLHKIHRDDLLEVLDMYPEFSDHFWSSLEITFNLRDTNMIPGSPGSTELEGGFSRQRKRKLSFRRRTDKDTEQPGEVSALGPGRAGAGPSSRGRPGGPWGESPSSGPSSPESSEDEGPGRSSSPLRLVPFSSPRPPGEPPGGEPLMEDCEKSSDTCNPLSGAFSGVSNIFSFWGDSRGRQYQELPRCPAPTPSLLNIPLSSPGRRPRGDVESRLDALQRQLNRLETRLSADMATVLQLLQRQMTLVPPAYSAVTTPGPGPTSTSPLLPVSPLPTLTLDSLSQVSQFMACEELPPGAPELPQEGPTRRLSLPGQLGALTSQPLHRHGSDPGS

Compound	hERG current change (%, negative = inhibition) at 1uM [%]
Cn1c(Cn2c(=O)sc3ccccc32)nnc1SCc1ccccc1	-1.16
CCOC(=O)Cn1c(=O)c(-c2cc(Br)ccc2N)nc2ccccc21	13.1
Cc1ccccc1N1CCN(Cc2cc3c(cc2[N+](=O)[O-])OCO3)CC1	12.4
CC1(c2cccc(Br)c2)NC(=O)N(CC(=O)N2CCc3ccccc32)C1=O (stereo not drawn)	3.34
CC(C)(C)C(=O)OC[N+](C)(C)CCOC(=O)C(O)(c1ccccc1)C1CCCC1.[Cl-] (stereo not drawn)	12.7
Cc1ccccc1-c1nnc(SCC(=O)Nc2ccc(Cl)cc2)n1N	12.5
CCOC(=O)Cc1csc(NC(=O)Cn2c(=O)oc3ccccc32)n1	14.5
COc1cccc(CC2(CO)CCCN(Cc3[nH]c4ccc(C)cc4c3C)C2)c1 (stereo not drawn)	-6.47
CC(=O)Nc1cccc2ncccc12	10.2
CCCCc1nnc(NC(=O)CSc2nc(=O)cc(N)n2-c2cccc(C)c2)s1	6.36
Cc1cc(C(=O)Nc2c(C)n(C)n(-c3ccccc3)c2=O)c2ccccc2n1	7.33
CCOc1ccc(CN2CCN(C/C=C/c3ccc(OC)cc3)CC2CCO)cc1 (stereo not drawn)	-77.1
Cc1ccc(C(O)CCc2ccc(N)cc2)cc1 (stereo not drawn)	8.65
O=C(Nc1cccc(-c2nc3ccccc3o2)c1)c1ccc(N2C(=O)C3C4C=CC(C4)C3C2=O)cc1 (stereo not drawn)	-1.08
O=C(CSc1nc(-c2ccccc2)cc(C(F)(F)F)n1)NCc1ccco1	1.13
CCC(=O)N/C(=N\OCc1ccc(F)cc1)c1nonc1NC(=O)CC	16.8
CCOC(=O)c1nnn(CC(=O)N2N=C(c3ccccc3)CC2c2ccccc2)c1C(=O)OCC (stereo not drawn)	6.3
CCn1nc(C)c(CN2CCC(n3nccc3NC(=O)Cc3ccccc3)CC2)c1C	10.3
O=C(NN=C(c1ccccc1)c1ccccc1)C(CCl)C1CCCCC1 (stereo not drawn)	2.47
Cc1cc(OCC(=O)N2C[C@H]3C[C@@H](C2)c2cccc(=O)n2C3)c2c(C)cc(=O)oc2c1	3.15
O=C(COc1ccc(C(=O)NCCc2ccccc2)cc1)Nc1ccccc1	12.9
Cc1csc(SCC(=O)Nc2sc3c(c2C#N)CCC3)n1	-1.64

Compound	hERG current change (%, negative = inhibition) at 1uM [%]
COc1ccccc1Nc1nc(NCCO)nc(N2CCCC2)n1	0.663
COc1ccc(S(=O)(=O)NNC(=O)C23CC4CC(CC(C4)C2)C3)cc1	-1.16
Fc1ccccc1NC(=S)N(CCN1CCCCC1)Cc1ccco1	-14.1
Cc1ccc(NC(=O)CN(c2cc(C)cc(C)c2)S(=O)(=O)c2c(C)noc2C)nc1	-6.14
CCOC(=O)c1[nH]c2ccccc2c1NC(=O)CC	9.17
O=C(NC(=O)c1cc[nH+]cc1)NC(c1ccccc1)c1ccccc1.[Cl-]	7.78
CCCN(C(=O)COC(=O)CCOc1ccc(C)cc1)c1c(N)n(Cc2ccccc2)c(=O)[nH]c1=O	-6.19
CCOC(=O)N1CCN(C(=O)COc2ccc3ccccc3c2Br)CC1	14.8
COCc1cccc(N2C(=O)CC(C3C=C(C)C4C(=O)N(c5cccc(COC)c5)C(=O)C4C3)C2=O)c1 (stereo not drawn)	2.85
O=C(CCSc1nnc(-c2ccncc2)o1)Nc1ccc(F)cc1	-4.44
COCCn1nnnc1C(c1ccc(Cl)cc1)N1CCSCC1.Cl (stereo not drawn)	0.657
COC(=O)c1ccccc1NC(=O)N1c2ccccc2Sc2ccccc21	-0.806
C=C1CC2C3CC[C@@]4(OCOC45COCO5)[C@@]3(C)C(O)CC2[C@@]2(C)CCC(=O)C=C12 (stereo partly drawn)	13.6
Cc1ccc(S(=O)(=O)Cc2ccccc2Cl)cc1	11.8
CC(C)N1CCC(N2CCN(Cc3cnc(-c4ccccc4)s3)CC2CCO)CC1 (stereo not drawn)	5.1
CC(C)CNC(=S)N(Cc1ccco1)Cc1cc2cc3c(cc2[nH]c1=O)OCCO3	7.5
Cc1cc(S(=O)(=O)Nc2ccc(C(=O)N3CCN(c4ccccc4O)CC3)cc2)ccc1F	5.34
O=C(Nc1ccccc1)N(Cc1ccccc1)Cc1ccccc1	-3.85
CCNc1c(NCC)c(=O)c1=O	12.9
Cc1nnc(SCC(=O)NC2CCCC2)n1-c1ccccc1	3.46
COc1cccc(N2CCN(C(=O)CN(c3cc(C)cc(C)c3)S(=O)(=O)c3c(C)noc3C)CC2)c1	4.95
O=C(/C=C/c1cccc([N+](=O)[O-])c1)OCC(=O)N1CCOCC1	21.3

Compound	hERG current change (%, negative = inhibition) at 1uM [%]
CC(OC(=O)c1nsc(Cl)c1Cl)C(=O)NCc1ccco1 (stereo not drawn)	12.5
Cc1ccc(SC(C)C(=O)NCCC2=CCCCC2)cc1 (stereo not drawn)	10.1
CCc1cc(/C(Cc2ccccn2)=N\O)c(O)cc1O	5.24
NC(=O)c1cn(-c2ccccc2)nc1-c1cccnc1	3.49
CC(=O)N(C)Cc1ccc(C(=O)CSc2nnc(C3CC3)n2C2CC2)cc1	4.35
Cc1cc(N/N=C/c2ccc(O)cc2)c2cccc(C)c2n1	-3.41
O=C(CSc1nc2ccccc2o1)N1CCN(c2ccccc2)CC1	16.2
CCOP(=O)(c1ccccc1Cl)C1(O)CCCCC1 (stereo not drawn)	-3.79
COc1ccc2nc(Cl)c(C3CC(c4ccco4)=NN3C(=O)CCCC(=O)O)cc2c1 (stereo not drawn)	12.1
COc1cc(C(C[N+](=O)[O-])c2c(N)n(C)c(=O)n(C)c2=O)ccc1O (stereo not drawn)	10.4
COc1ccccc1NC(=O)c1ccc(Br)o1	9.97
Cc1c(C(=O)NCCN2CCOC2=O)oc2c(F)cccc12	17.7
N#CC1(NC(=O)COC(=O)/C=C/c2ccc3ccccc3n2)CCCCC1	15.6
COc1ccc(OC)c(NC(=O)CSc2nc3ccccc3c(=O)n2CC2CCCO2)c1 (stereo not drawn)	3.62
CCOc1ccc(N2C(=O)c3ccccc3NC2(C)CC)cc1 (stereo not drawn)	8.96
COC(=O)c1ccccc1NC(=O)CSc1nnnn1-c1ccc(C)cc1C	14.1
O=C(COc1ccc(/C=C2/NC(=O)NC2=O)cc1)Nc1ccc(F)cc1	11.5
CN(C)C1(CNC(=S)Nc2ccccc2C(F)(F)F)CCCCC1	8.48
Cc1cc(CNCc2cn(C)nc2-c2ccc(Oc3ccccc3)cc2)on1	8.99
CCn1cc(SCC(=O)N2CCc3ccccc32)c2ccccc21	7.38
COc1ccc(/C=C2\SC(=S)N(CC(=O)OCC(=O)Nc3cc(Cl)cc(Cl)c3)C2=O)cc1	5.17
Cc1ccccc1NS(=O)(=O)c1cc(C(=O)N2CCCC2)ccc1Cl	-0.425

Compound	hERG current change (%, negative = inhibition) at 1uM [%]
Nc1nc2ccccc2n1/N=C/c1cccnc1	13.6
O=C(CN1CCN(Cc2ccccc2)CC1)N/N=C\C=C/c1ccco1	7.28
COc1ccc(C2=NN(CN3C(=O)C(=O)c4ccccc43)C(c3cccc([N+](=O)[O-])c3)C2)cc1 (stereo not drawn)	5.82
CCOc1ccccc1C(=O)N1CCC(n2nnc3cc(C(F)(F)F)ccc32)CC1	-14.2
CS(=O)(=O)c1ccc2nc(NC(=O)c3ccc(NS(=O)(=O)c4ccc(F)c(F)c4)cc3)sc2c1	11.8
Cc1noc(C)c1-c1nc(CS(=O)(=O)c2ccc(F)cc2)no1	13.1
CC(C)[C@H](NC(=O)c1ccccc1)C(=O)OCC(=O)Nc1ccc2c(c1)OCCO2	-4.16
CC1=C(C(=O)Nc2ccccn2)C(c2ccc(Cl)cc2Cl)NC(=S)N1 (stereo not drawn)	2.95
COc1ccc2cc(C(C)C(=O)OC(C)C)ccc2c1 (stereo not drawn)	14.6
Cc1nc2cc(F)ccc2n1C1CCN(Cc2nnnn2CCc2ccccc2)CC1.Cl	-21.7
CC(SCc1cc(=O)n2c([nH]c3ccccc32)c1C#N)C(=O)O (stereo not drawn)	18
O=C(NCCc1c[nH]c2ccccc12)c1ccc(Cl)cc1	-3.43
CC(=O)Nc1ccccc1C(=O)C(=O)Nc1cccc(C(=O)NCc2ccc(C)cc2)c1	6.21
Cc1ccc(-c2nc3s/c(=C\c4ccco4)c(=O)n3n2)cc1	5.53
COc1ccccc1NC(=O)CCC(=O)Nc1nnc(C2CCCCC2)s1	10.7
O=C(N/N=C/c1ccccc1OC(F)F)NC1CCCCC1	18.2
Cc1ccc(/C=N/NC(=O)c2cc3ccccc3cc2O)o1	9.58
C=CCn1cccc(C(=O)Nc2ccc(C)c(C)c2)c1=O	-24.1
S=c1[nH]nc(C2COc3ccccc3O2)o1 (stereo not drawn)	-7.88
CCOc1ccc(N=C2SC(C(=O)O)CC(=O)N2C)cc1 (stereo not drawn)	8.33
CCCNC(=O)CCn1nc(-c2ccc(C)cc2)c2ccccc2c1=O	9.81
